Measurements published in article PMC12136788.
The other results are listed elsewhere or left out.

B1: ENSG00000084774:stop:overlap|stop_codon|ENSG00000084774|stop_codon|NA|stop_codon (ssRNA)
RNA: GGGAGUUCUACAGUCCGACGAUCAGGCUGAGAACGGCAUGUACAUCCGCAUGGCUCUGUUAGCCACCGUGCUGGGCCGUUUCUAGGGCCUGGCUUCCUCAGCCUCUUCUCUUUAGGCCCAGCUGCUGGGCAAGGAAUUCCAGUCAACAGAGGAUUGAGCAUCA
B2: chr5:140245379:140245480:-|3pUTR|ENSG00000113068|msi1|total|mutant (ssRNA)
RNA: GGGAGUUCUACAGUCCGACGAUCUCUUCUCUUUUCCCUUCCUGUACCUUUGACUAACGCUCAGCUUCCGGGCCUGCAUGCAGCCGACAGAAGAGGAAGAAAGAACAGAUGUUCACAGCUGAAUCUCAGUGAACAGAACCGCAGCAACAGAGGAUUGAGCAUCA
B3: ENSG00000070961:be:win_3701|3pUTR|ENSG00000070961|bound_else_gene|NA|bound_elsewhere_windowed (ssRNA)
RNA: GGGAGUUCUACAGUCCGACGAUCAGAAACAAAUUGAAACUGGGUCUUUUCACAUAUUGUGAUGGACAAGCUAGUAUUCUUGUCUUUGGACUUCAACAGAAGACACACUUGUACGAAUGUAGAUUUAUUUUUUUAAAAAAAAAACAACAGAGGAUUGAGCAUCA
B4: chr17:65014400:65014519:-|CDS|ENSG00000120063|unk|total|mutant (ssRNA)
RNA: GGGAGUUCUACAGUCCGACGAUCAAACAAGACAGACUUGCUUGAGGAGAAGGUGCAAAUUGUGAGCAUCAAAGACUAUUUCCCCGAAUUUGAAGGGGAUCCCCACUGCUUAAGAGACGUCCAAAAAUUCCUGGUGGAAUGUUUCAACAGAGGAUUGAGCAUCA
B5: chr2:207821287:207828318:-|three_prime_utr|ENSG00000178385|control|control|control (ssRNA)
RNA: GGGAGUUCUACAGUCCGACGAUCACCCGAAGGCCAGGGAUUCACCAAUCAACAAUCCAUCAGCCCCAGAGCGGCCUCCUAACUAGCCAGUUAGACCCCUUUGGAAGAAGAGUAUGUAUCCUCUUCAACUAGAUAUAGAUAUAUCAACAGAGGAUUGAGCAUCA
B6: ENSG00000198589:be:win_7551|CDS|ENSG00000198589|bound_else_gene|NA|bound_elsewhere_windowed (ssRNA)
RNA: GGGAGUUCUACAGUCCGACGAUCGCCUGGUUUGGCAACUCCCGCUGUGAUCACAGUCACUGCUAACAGGUUAUUUGCGGUGAACAAAUGGCACAACCUUCCUGCUCAUCAAGGUGCUGUACAAGACCAGCCAUACCAGCUGCCCAACAGAGGAUUGAGCAUCA
B7: chr3:62294137:62294238:+|3pUTR|ENSG00000144724|msi1|FALSE|unique (ssRNA)
RNA: GGGAGUUCUACAGUCCGACGAUCUGAGACCCUUUAGUUAUUCUCCAUUAAUGCUUCUUAGUUUGUAAUACCAUACCUCACAGUAGGUAGAAGAAUGAAAACUUCUGCAGGUGUGUAAUUUUGAAACUAGUCCUCUAAAAAUUCCAACAGAGGAUUGAGCAUCA
B8: chr1:114567884:114567985:-|3pUTR|ENSG00000116752|msi1|FALSE|bound_elsewhere (ssRNA)
RNA: GGGAGUUCUACAGUCCGACGAUCUGGUAAUUCUAUUUGUAUAUCUCAACAGAAUUAAAAUGUCUAGCUUGGUGGUAUUUUUAUAGCCAUAAAAGAAAAUCUUUAGGCUUUCAAAAUAAGGAUGACUUUAGAAUAAUAUUGUGUCAACAGAGGAUUGAGCAUCA
B9: chr1:53952023:53952124:+|CDS|ENSG00000116212|msi1|total|mutant (ssRNA)
RNA: GGGAGUUCUACAGUCCGACGAUCUACAUGCGAGAAAAUGGGCAGCUGCACAUGGUCAAUCUGGCUCUGGAUGGUGUCAGGAGCCGCCUGCAGAAGCCAAGGCCUUUCAGACUGUUCCCCAAAGGCUUUUCUGUGGAGCUUUGCCAACAGAGGAUUGAGCAUCA
B10: chr2:227556236:227556337:+|3pUTR|ENSG00000173744|msi1|FALSE|bound_elsewhere (ssRNA)
RNA: GGGAGUUCUACAGUCCGACGAUCUGUUGAAUGCCUUUUUGCAAUGAUGACUGAGUUGUUAUCAUAGUAUUUUAAAACCUGUAUAGUGUUUUAGACUUGUUAAAACAUUGCUGUCUAGUGUACAUCUAGCUAAAAGUGUGGUUUCAACAGAGGAUUGAGCAUCA
B11: ENSG00000165219:stop:overlap|stop_codon|ENSG00000165219|stop_codon|NA|stop_codon (ssRNA)
RNA: GGGAGUUCUACAGUCCGACGAUCUACCUAUAGGUAAAGAGAAUUUCUCGUAUUGGAGCUUUCUCUUAAAUCUAAUAUUUCAUUAGCCUUUGUUAUUGCUGAGUGUUUUGGAACAUAUGUUUAAGUACUUGGGAAAGUCUUUCUCAACAGAGGAUUGAGCAUCA
B12: chr5:72198766:72198867:+|CDS|ENSG00000131711|msi1_unk|FALSE|overlapping (ssRNA)
RNA: GGGAGUUCUACAGUCCGACGAUCUUCUACCUCUGCAGUCAAAGAGAAAACAGCAACUUGCCACAGUUCCUCUUCUCCACCAAUAGAUGCAGCAUCCGCAGAGCCCUAUGGCUUCCGUGCCUCAGUGUUAUUCGAUACAAUGCACAACAGAGGAUUGAGCAUCA
B13: chr3:44446857:44446958:-|CDS|ENSG00000185219|msi1|FALSE|unique (ssRNA)
RNA: GGGAGUUCUACAGUCCGACGAUCGGGAGACAUACCCUUUCCAGUCACCAGAGGAAACACACCAGAGCAGCACAGGCUGAACGUAGCCCGCCUGCACGGUCUUCCUCUCAGGACACAAAGUUGAGAUUACAGAAGCUAAAACCACAACAGAGGAUUGAGCAUCA
B14: chr15:60490033:60490134:-|3pUTR|ENSG00000069667|unk|FALSE|unique (ssRNA)
RNA: GGGAGUUCUACAGUCCGACGAUCUGCUGGAUUUGGGACAUGCUUUUCUCUUUAAAUACAUAAUAUCAUUAUAUAAAUUAUUCUAGAGUGUAUUUAAUUAGGAUAAAAUUACUUCCUUAGUAUGGAUAUUUGACAUCUAUAGGGCAACAGAGGAUUGAGCAUCA

The binders below were run against MSI1 full-length (mouse, UniProt Q61474 1-362) (assay: nsRBNS (natural sequence RNA bind-n-seq); RBNS binding buffer (assumed for nsRBNS): 25 mM Tris pH 7.5, 150 mM KCl, 3 mM MgCl2, 0.01% Triton X-100, 500 ug/ml BSA, 20 U/ml SUPERase-In, 4 C; UNK is unkempt and MSI1 is Musashi-1; names of the RNAs are library labels; protein concentration not given here; high values mean tight binding).
Sequence of UniProt Q61474 (Q61474 whole entry): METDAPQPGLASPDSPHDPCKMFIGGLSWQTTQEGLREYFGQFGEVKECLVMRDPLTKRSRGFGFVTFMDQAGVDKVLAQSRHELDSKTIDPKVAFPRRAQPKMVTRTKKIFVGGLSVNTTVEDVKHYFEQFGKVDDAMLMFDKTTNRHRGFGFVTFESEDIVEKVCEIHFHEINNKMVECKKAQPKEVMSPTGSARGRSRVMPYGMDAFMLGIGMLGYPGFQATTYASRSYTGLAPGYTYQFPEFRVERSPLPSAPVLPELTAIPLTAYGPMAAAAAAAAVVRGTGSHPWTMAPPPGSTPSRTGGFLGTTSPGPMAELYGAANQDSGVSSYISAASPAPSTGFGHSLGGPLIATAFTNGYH
Work on B1 yielded a binding signal of 1 enrichment R.
B2 was tested, and the binding signal was 0.401 enrichment R.
For B3, the binding signal was 0.866 enrichment R.
With B4 the binding signal was 0.239 enrichment R.
With B5 the binding signal was 2.17 enrichment R.
For B6, the binding signal was 0.573 enrichment R.
Work on B7 yielded a binding signal of 8.1 enrichment R.
With B8 the binding signal was 0.712 enrichment R.
Work on B9 yielded a binding signal of 0.41 enrichment R.
For B10, the binding signal was 2.93 enrichment R.
Work on B11 yielded a binding signal of 1.03 enrichment R.
In the case of B12, the binding signal is reported as 0.463 enrichment R.
In the case of B13, the binding signal is reported as 0.358 enrichment R.
B14 showed a binding signal of 7.83 enrichment R.
